Measured values from the supplement of paper PMC4723716.
± gives the uncertainty stated by the source. Whole data set: some 9,900 compounds, median “viability index relative to DMSO control” near 1, cut for the lowest 2% near 0.85. Some of the results follow.

Tested on: Plasmodium falciparum NF54 stage V gametocytes
Assay: viability index relative to DMSO control (fraction); higher = less gametocyte killing
Conditions: 2.5 µM, incubation time: 72 h
In short: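 In 1,536-well plates, 10 µl of serum-free medium holding P. falciparum NF54 stage V gametocytes (0.75% gametocytemia, 1.25% hematocrit) received compound at 2.5 µM for 72 hr at 37°C in low oxygen. After one to two hours with 3 µl of 2.5 µM MitoTracker Red CMXRos containing 0.13% saponin, red particles of 20–70 µm2 were counted in a single field per well. Viability index is reported as the particle count over the plate mean of wells treated with solvent only.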

[1] = library set: Broad Institute DOS

| Compound | viability index [1] | viability index (library set: Broad Institute Blood Stage) |
| --- | --- | --- |
| COc1ccccc1-c1ccc([C@H]2[C@H](C#N)N[C@@H]2CO)cc1 | 1.05 ± 0.026 |  |
| O=C(C[C@H]1CC[C@H]2[C@@H](COC[C@@H](O)CN2CC2CCOCC2)O1)NCC1CCCCC1 | 0.987 ± 0.03 |  |
| Cc1ccc(S(=O)(=O)N(C)C[C@@H]2OCCCC[C@H](C)Oc3ccc(NC(=O)c4ccncc4)cc3C(=O)N([C@H](C)CO)C[C@H]2C)cc1 | 1.07 ± 0.018 |  |
| COc1ccc2c3c([C@@H](CO)N(C[C@]33CCN(CC3)C(=O)c3ccc4OCOc4c3)C(=O)Nc3ccc(F)cc3)n(C)c2c1 | 0.967 ± 0.057 |  |
| C[C@@H]1CN([C@@H](C)CO)C(=O)c2cccc(N(C)C)c2O[C@@H]1CN(C)C(=O)Nc1ccc(F)cc1 | 0.924 ± 0.016 |  |
| COc1ccc2c3c([nH]c2c1)[C@H](CO)N(C)C[C@]31CCN(CC1)C(=O)c1ccccc1F | 0.944 ± 0.024 |  |
| COc1cccc(S(=O)(=O)Nc2ccc3c(c2)[C@@H]2C[C@@H](CC(=O)NC4CCCCC4)O[C@H](CO)[C@@H]2O3)c1 | 1.1 ± 0.021 |  |
| COc1ccc(-c2ccccc2[C@@H]2[C@@H](CO)N(C(=O)NC(C)C)[C@H]2C#N)cc1 | 1.1 ± 0.063 |  |
| Cc1noc(C)c1S(=O)(=O)Nc1ccc2c(c1)C(=O)N([C@H](C)CO)C[C@H](C)[C@H](CN(C)C(=O)NC1CCCCC1)O2 | 0.9789 ± 0.0031 |  |
| C[C@@H]1CN([C@H](C)CO)C(=O)c2c(c3ccccc3n2C)-c2ccccc2CO[C@@H]1CN(C)C(=O)[C@H](Cc1ccccc1)N(C)C | 1.04 ± 0.09 |  |
| O=C(NCC[C@@H]1CC[C@@H](NC(=O)C2CCOCC2)[C@@H](CO)O1)c1cc(Cl)cc(Cl)c1 | 1.01 ± 0.12 |  |
| C[C@H]1CCCCO[C@H](CN(C)C(=O)Nc2cccc3ccccc23)[C@@H](C)CN([C@@H](C)CO)C(=O)c2cc(NC(=O)CCC(F)(F)F)ccc2O1 | 0.993 ± 0.057 |  |
| COc1ccccc1S(=O)(=O)N(C)C[C@H]1OCc2ccccc2-c2ccccc2C(=O)N([C@H](C)CO)C[C@@H]1C | 1.009 ± 0.0022 |  |
| Cc1noc(C)c1S(=O)(=O)N(C)C[C@H]1OCCCC[C@@H](C)Oc2ccc(NC(=O)CCC(F)(F)F)cc2C(=O)N([C@@H](C)CO)C[C@H]1C | 1.02 ± 0.045 |  |
| COc1ccc2c3c([C@@H](CO)N(C[C@]33CN(C3)C(=O)Nc3ccc(F)cc3)C(=O)c3ccc(F)cc3)n(C)c2c1 | 0.905 ± 0.013 |  |
| CN1C(=O)c2cc(NS(C)(=O)=O)ccc2OC[C@@H]2O[C@@H](CC(=O)NCc3ccccc3)CC[C@@H]21 | 1.02 ± 0.12 |  |
| O=C(CC1CC1)N1CC(=O)N2[C@H](CO)[C@H](c3ccc(/C=C/c4ccccc4)cc3)[C@@H]2C1 | 1.056 ± 0.0063 |  |
| CCNC[C@@H]1[C@H](c2ccccc2)[C@H](CO)N1C(=O)Cc1ccccn1 | 1.03 ± 0.019 |  |
| CN(C)C(=O)c1ccc(-c2ccc([C@H]3[C@@H]4CN(Cc5cncnc5)C[C@H]3N4)cc2)cc1 | 1.06 ± 0.031 |  |
| CCN(C[C@@H]1N[C@@H](CO)[C@H]1c1ccccc1)C(=O)c1ccncc1 | 1 ± 0.011 |  |
| CC(C)COC(=O)N(C)C[C@H]1OCc2ccccc2-c2ccccc2C(=O)N([C@H](C)CO)C[C@H]1C | 0.977 ± 0.015 |  |
| O=C(Nc1cc(F)ccc1F)N[C@H]1CC[C@H](CC(=O)N2CCc3ccccc3C2)O[C@H]1CO | 1.115 ± 0.0054 |  |
| CC(C)[C@H]1C/C=C/C[C@@H](C)Oc2ccccc2C(=O)N(C)[C@H](C(C)C)C(=O)N1.CC(C)[C@H]1C/C=C\C[C@@H](C)Oc2ccccc2C(=O)N(C)[C@H](C(C)C)C(=O)N1 | 1.006 ± 0.0079 |  |
| COc1ccc2c3c([nH]c2c1)[C@@H](CO)N(Cc1ccccc1)C[C@]31CCN(Cc2cncnc2)CC1 | 0.849 ± 0.064 |  |

| Compound | viability index [1] | viability index (library set: Broad Institute Blood Stage) |
| --- | --- | --- |
| C[C@H]1CN([C@@H](C)CO)C(=O)Cc2cc(NC(=O)c3ccncc3)ccc2O[C@@H]1CN(C)C(=O)Nc1ccc(F)cc1 | 0.932 ± 0.025 |  |
| C/C=C/c1ccccc1[C@@H]1[C@H](C#N)N(C(=O)CN2CCOCC2)[C@H]1CO | 1.09 ± 0.057 |  |
| O=C(O)C[C@H]1C=C[C@H](NC(=O)Nc2cc(F)ccc2F)[C@@H](CO)O1 | 1.02 ± 0.017 |  |
| C/C=C/c1ccccc1[C@@H]1[C@@H](C#N)N(c2nc(CC)cs2)[C@@H]1CO | 1.09 ± 0.21 |  |
| N#C[C@H]1[C@H](c2ccccc2-c2cccc(F)c2)[C@H](CO)N1C(=O)CN1CCOCC1 | 1.07 ± 0.077 |  |
| CO[C@@H](CN(C)C(=O)c1ccccc1F)[C@@H](C)CN([C@H](C)CO)S(=O)(=O)c1ccc(F)cc1 | 1.02 ± 0.044 |  |
| N#C[C@@H]1N[C@H](CO)[C@@H]1c1ccc(C#Cc2ccccc2F)cc1 | 1.11 ± 0.048 |  |
| O=C(CC(F)(F)F)N1C[C@H]2[C@@H](c3ccccc31)[C@@H](CO)N2C(=O)C1CCCCC1 | 1.03 ± 0.051 |  |
| N#C[C@H]1[C@@H](c2ccc(C3=CCCCC3)cc2)[C@@H](CO)N1C(=O)CN1CCOCC1 | 1.14 ± 0.032 |  |
| N#Cc1cccc(-c2ccc([C@@H]3[C@@H](CO)N4CCCCN(Cc5ccccc5F)C[C@H]34)cc2)c1 | 0.889 ± 0.028 |  |
| CC(C)NC(=O)N1CC(=O)N2[C@H](C1)[C@H](c1ccc(/C=C/c3ccccc3)cc1)[C@@H]2CO | 1.01 ± 0.052 |  |
| CC(C)(C)[S@@](=O)N1Cc2cc(C(=O)NCc3ccccc3F)nc(-c3cccc(-c4cncnc4)c3)c2[C@H]1CCO | 0.801 ± 0.1 |  |
| COc1ccc2c3c([nH]c2c1)[C@H](CO)NC[C@]31CCN(CC1)C(=O)Nc1ccc2OCOc2c1 |  | 1.01 ± 0.042 |
| COc1ccc2c3c([nH]c2c1)[C@H](CO)N(C[C@]31CN(C1)C(=O)c1ccncc1)C(=O)NC(C)C | 0.97 ± 0.13 |  |
| CO[C@H]1CC[C@@H]2CCOc3c(C#N)cccc3C(=O)N(C)C[C@@H](OC)[C@@H](C)C(=O)N(C)C[C@H]1O2 | 1.0822 ± 0.00067 |  |
| CN1c2ccc(-c3ccccc3F)cc2[C@@H]2[C@@H](CCN2C(=O)Nc2cc(F)ccc2F)[C@@H]1CO | 1.08 ± 0.054 |  |
| CO[C@@H]1CN(C)C(=O)c2cc(NC(C)=O)ccc2OC[C@@H](C)N(C(=O)Cc2ccccn2)C[C@@H]1C | 1.1 ± 0.017 |  |
| Cc1noc(C)c1NC(=O)Nc1ccc2c(c1)CC(=O)N([C@H](C)CO)C[C@H](C)[C@H](CN(C)Cc1ccc(C(F)(F)F)cc1)O2 | 0.9964 ± 0.0062 |  |
| CC(C)(C)S(=O)N1Cc2cc(C(=O)NCc3ccc(Oc4ccccc4)cc3)nc(-c3cccc(C#CCC4CCCC4)c3)c2[C@@H]1CCO (stereo not given in full) | 0.966 ± 0.018 |  |
| C[C@@H]1CN([C@@H](C)CO)C(=O)c2ccccc2-c2ccccc2CO[C@H]1CN(C)C(=O)Nc1ccnc(N2CCOCC2)c1 | 1.01 ± 0.077 |  |
| COc1ccc([C@@H]2C/C=C\C[C@@H](c3ccc(F)cc3)NC(=O)CCC(=O)N2)c(OC)c1 | 1.055 ± 0.0078 |  |
| C[C@@H]1CN([C@H](C)CO)C(=O)c2cc(N(C)C)ccc2O[C@@H](C)CCCCO[C@H]1CN(C)S(=O)(=O)c1ccc(F)cc1 | 1.04 ± 0.14 |  |
| COc1ccc(CN(C)C[C@@H]2Oc3ccc(NC(=O)Nc4ccc5c(c4)OCO5)cc3CC(=O)N([C@@H](C)CO)C[C@@H]2C)cc1 | 0.927 ± 0.078 |  |
| COCC(=O)N1[C@H](C#N)[C@H](c2ccccc2C2=CCCC2)[C@H]1CO | 1.14 ± 0.16 |  |

| Compound | viability index [1] | viability index (library set: Broad Institute Blood Stage) |
| --- | --- | --- |
| CN1C(=O)c2cc(NC(=O)c3ccc(C#N)cc3)ccc2OC[C@H]2O[C@@H](CC(=O)Nc3cc(F)ccc3F)CC[C@@H]21 | 1.13 ± 0.12 |  |
| COc1ccc2c3c([C@H](CO)N(C)C[C@]33CCN(CC3)C(=O)CN3CCOCC3)n(C)c2c1 | 1.02 ± 0.058 |  |
| O=C(C1CCCCC1)N1C[C@@H]2N[C@H](C1)[C@H]2c1ccc(-c2ccccc2F)cc1 | 1.08 ± 0.092 |  |
| C=C(C)C[C@H]1CCn2nncc2COCCNC1=O | 1.02 ± 0.015 |  |
| CC(C)NC(=O)Nc1ccc2c(c1)C(=O)N([C@H](C)CO)C[C@@H](C)[C@H](CN(C)C(=O)C1CCCCC1)OCCCC[C@H](C)O2 | 1.04 ± 0.024 |  |
| C[C@@H]1C/C=C/CCNC(=O)[C@@H](Cc2ccccc2)N(C)C(=O)c2ccccc2O1.C[C@@H]1C/C=C\CCNC(=O)[C@@H](Cc2ccccc2)N(C)C(=O)c2ccccc2O1 | 1.007 ± 0.0016 |  |
| NCC[C@H]1CC[C@@H](NC(=O)Cc2ccncc2)[C@@H](CO)O1 | 1.1 ± 0.021 |  |
| O=C(Nc1ccc(F)cc1)N1CC(=O)N2[C@@H](CO)[C@@H](c3ccc(C4=CCCC4)cc3)[C@@H]2C1 | 1.02 ± 0.017 |  |
| CN1C(=O)c2cc(NC(=O)Nc3ccc(Cl)cc3)ccc2OC[C@H]2O[C@@H](CC(=O)NCCN3CCCCC3)CC[C@H]21 | 1.01 ± 0.025 |  |
| CO[C@H]1CN(C)C(=O)c2cccc(C#N)c2OCC[C@@H]2CC[C@@H](OC)[C@@H](CN(C)C(=O)[C@@H]1C)O2 | 1.03 ± 0.03 |  |
| CC(C)NC(=O)N1[C@H](CO)[C@H](c2ccccc2-c2ccc(F)cc2)[C@@H]1C#N | 1.15 ± 0.12 |  |
| O=C(Cc1cccnc1)N1CC(=O)N2[C@H](C1)[C@H](c1ccc(C3=CCCCC3)cc1)[C@@H]2CO | 1.129 ± 0.0029 |  |
| O=C(c1cccc(F)c1)N1CC2(C1)[C@@H](c1ccccc1)[C@@H](CO)N2Cc1ccccn1 | 1.05 ± 0.048 |  |
| C[C@H](O)C#Cc1ccc([C@H]2[C@H](CO)N3CCCCN(C(=O)c4ccc5c(c4)OCO5)C[C@@H]23)cc1 | 0.976 ± 0.016 |  |
| COCC(=O)N1[C@H](CO)[C@H]2c3ccccc3NC[C@H]21 | 1.03 ± 0.028 |  |
| C/C=C/c1ccc([C@@H]2[C@@H](CO)N(C(=O)NC(C)C)C23CN(Cc2ccc(OC)cc2)C3)cc1 | 0.993 ± 0.09 |  |
| COCC(=O)Nc1ccc2c(c1)OC[C@@H](C)N(C)C[C@@H](C)[C@H](OC)CN(C)C2=O | 1.06 ± 0.007 |  |
| CO[C@@H](CN(C)C(=O)C1CCOCC1)[C@H](C)CN([C@H](C)CO)S(=O)(=O)c1ccccc1 | 0.985 ± 0.1 |  |
| O=C(C[C@@H]1CC[C@H]2[C@@H](COC[C@H](O)CN2C(=O)Nc2ccccc2)O1)NCc1ccccc1F | 1.01 ± 0.094 |  |
| O=C(c1ccncc1)N1C[C@@H]2[C@H](c3ccccc31)[C@@H](CO)N2C(=O)CN1CCOCC1 | 1.024 ± 0.0054 |  |
| C[C@@H]1CN([C@@H](C)CO)C(=O)CCCn2nncc2CO[C@H]1CN(C)C(=O)Nc1ccnc(N2CCOCC2)c1 | 1.03 ± 0.093 |  |
| COc1ccc2c3c([nH]c2c1)[C@H](CO)N(C[C@]31CN(C1)C(=O)c1ccccn1)C(=O)Nc1ccc(F)cc1 | 0.971 ± 0.052 |  |
